Reference: the RNAGym collection of RNA variant scans (doi:10.7554/elife.90254)
The source gives no read counts; variants with many changes may rest on few reads.

B1: OR4K15 (parent)
chain: GUUAACGGUCAUAGGCCAUGGAAACUAGGAGCACCAUUUCGCUGCCAGUGAAGAAAUGAACAAAGAAAAUCUGGGCCAGGCAGGCAUCAAAAGAAAUAGUCUUGCGCUCAACCAGAAAGUCUGUAAUCAUUUUAAGGGUA

Variants of: B1
Assay: self-cleavage, relative activity (ratio to wild type); higher = more cleavage; in vitro, sequencing; the parent is a self-cleaving ribozyme

| Variant | self-cleavage |
| --- | --- |
| GUUAACGGUCAUAGGCCAUGGAAACUAGGAGUACCAUUUCGCUGCCAGUGAAGAAAUGAACAAAGAAGAUCUGGGCCAGGCAGGCAUCAAAAGAGAUAGUCUUGCGCUCAACCAGAAAGUCUGCAAUCAUUUUAAGGGUA | 1.3 |
| GUUAGCGGUCAUAGGCCAUGGAAACUAGGAGCACCAUUUCGCUGCCAGUGAAGAAAUGAACAAAGAAAAUCUGGGCCAGGCAGGCAUCAAAAGGAAUAGUCUUGCGCUCAGCCAGAAAGUCUGUAAUCAUUUUAAGGGUA | 0.06 |
| GUUAACGGUCAUAGGCCAUGGAAACUAGGAGCACCAUUUCGCUGCCAGUGGAGAAAUGAACAAAGAAAAUCAGGGCCAGGCAGGCAUCAAAAGGGAUAGUCUUGCGCUCAACCGGAAAGUCUGUAAUCAUUUUAAGGGUA | 0.15 |
| GUUAACGGUCAUAGGCCAUGGAAACUAGGAGCACCAUUUCGCUGCCAGUGUAGAAAUGAACAAAGAAAGUCUGGGCCAGGCAGGCAUCAAGAGAAAUAGUCUUGCGCUCAACCAGAAAGUCUAUAAUCAUUUUAAGGGUA | 0.42 |
| GUUAACGGUCAUAGGCCAUGGAAACUAGGGGCACCAUUUCGCAGCCAGUGAAGAAAUGAACAAAGAGAAUCUGGGCCAGGCAGGCAUCAGAAGAAAUAGUCUUGCGCUCAACCAGAAAGUCUGUAAUCAUUUUAAGGGUA | 1.56 |
| GUUAACGGUCAUAGGCCAUGGAAACUAGGAGCACCGUUUCGCUGCCAGUGAAGAAAUGAACAGAGAAAAUCUGGGCCAGGCAGGCAUCAAAAGAAAUAGUCUUGCGCUCAACCAGAAAGCCUGUAAUCAUUUUAAGGGUA | 2.78 |
| GUUAACGGUCAUAGGCCAUGGAAACUAGGAGCACCAUUUCGCUGCCAGUGAAGAAAUGAACAAAGAAAAUCUGUGCCAGGCAGGCAUCAAAAGAAAUAGUCUUGCGCUCGACCAGAAAGGCUGUAAUCAUUUUAAGGGUA | 0.01 |
| GUUAACGGUCAUAGGCCGUGGAAACUAGGAGCACCAUUUCGCUGCCAGUGAAGAAGUGAACAAAGAAGAUCUGGGCCAGGCAGGCAUCAAAAGAAAUAGUCUUGCGCUCAACCAGAAAGUCUGUAAUCAUUUUAAGGGUA | 0.4 |
| GUCAACGGUCAUAGGCCAUGGAAACUAGGAGCACCAUUUCGCAGCCAGUGAAGAAAUGAACGAAGAAAAUCUGGGCCGGGCAGGCAUCAAAAGAAAUAGUCUUGCGCUCAACCAGAAAGUCCGUAAUCAUUUUAAGGGUA | 0.39 |
| GCUAACGGUCAUAGGCCAUGGAAACUAGGAGCACCUUUUCGCUGCCAGUGAAGAAAUGAACAAAGAGAAUCUGGGCCGGGCUGGCAUCAAAAGAAAUAGUCUUGCGCUCAACCAGAAAGUCUGUAAUCAUUUUAAGGGUA | 0.07 |
| GUUAGCGGUCAUAGGCCAUGGAGACUAGGAGCACCAUUUCGCUGCCAGUGAAGAAAUGAACAAAGAAAAUCUGGGCCAGGCAGGCAUCAAAGGAAAUAGUCUUGCGCCCAACCAGAAAGUCUGUAAUCAUUUUAAGGGUA | 0.06 |
| GUUAACGGCCAUAGGCCACGGAAACUAGGAGCACCAUUUCGCUGCCAGUGAAGAAAUGAACAAAGAAAAUCAGGGCCGGGCAGGCAUCGAAAGAAAUAGUCUUGCGCUCAACCAGAAAGUCUGUAAUCAUUUUAAGGGUA | 0.33 |
| GUUAACGGUCAUAGGCCAUGGAAACUAGGAGCACCAUUUCGCUGCCAGUGAAGAAAUGAACGAAGAAGAUCUGGGCCAGGCAGGCAUCAAAAGAAAUAGUCCUGCGCUCAACCAGAAAGUCCGUAAUCAUUUUAAGGGUA | 1.51 |
| GUUAACGGUCAUAGGCCAUGGAAACCAGGAGCACCAUUUCGCUGCCAGUGAAGGAAUGAGCAAAGAAAAUCUGGGCCAGGCAGGCAUCAAAAGAAAUAGCCUUGCGCUCAACCAGGAAGUCUGUAAUCAUUUUAGGGGUA | 1.07 |
| GUUAACGGUCAUAGGCCAUGGAGACUAGGAGCACCACUUCGCUGCCGGUGAAGAAGUGAACAAAGAAAAUCUGGGCCAGGCAGGCAUCAAAAGAAAUAGUCUUGCGCUCAACCAGAAAGUCUGUAAUCAUUUUAAGGGUA | 0.92 |
| GUUAACGGUCAUAGGCCAUGGAAACUAGGAGUACCAUUUCGCUGCCAGUGAAGAAAUGAACAAAGAAGAUCUGGGCCAGGCAGGCAUCAAAAGAAAUGGUCUUGCGCUCAACCAGAAAGUCUGUAAUCACUUUAAGGGUA | 0.37 |
| GUAAACGGCCAUAGGCCGUGGAAACUAGGGGCACCUUUUCGCUGCCAGCGAAGAAAUGAACAAAGAAAAUCUGGGCCAGGCAGGCAUCAAAAGAAAUAGUCUUGCGCUCAACCAGAAAGUCUGUAAUCAUUUUAAGGGUA | 0.72 |
| GUUAACGGUCAUAGGCCAUGGAAACUAGGAGCACCACUUCGCUGCCAGUGAAGAGAUGAACAAAGAAAAUCUGGGCCAGGCAGGCAUCAAAAGAAAUAGUCUUGCGCUCAACCAGAGAGUCUGUAAUCAUUUUAAGGGUA | 1.37 |
| GUUAACGGUCAUAGGCCAUGGAAACUAGGAGCACCAUUUCGCUGCCAGUGGAGAAAUGAACGAAGAAAAUCUGGGCCAGGCAGGCAUCAAAAGAAAUAGUCUUGCGCACAACCAGAAAGUCUGUAAUCAUUUUAAGGGUA | 0.04 |
| GUUAACGGCCAUAGGCCAUGGAAACUAGGAGCACCAUUUCGCUGCCAGUGAAGAAAUGAACAAAGAAAAUCAGGGCCAGGCAGGCAUCAAAAGAAAUAGUCUUGCGCUCGACCAGAAAGUCUGUAAUCAUUUUAAGGGUA | 0.06 |
| GUUAACGGUCAUAGGCCAUGGAGACUAGGAGCACCAUUUCGCUGCCAGUGAAGAAAUGUACAAAGAAAGUCUGGGCCAGGCAGGCAUCAAAAGAAAUAGUCUUGGGCUCAACCAGAAAGUCUGUAAUCAUUUUAAGGGUA | 0.01 |
